# Measured values published in paper PMC4336329 (PLoS ONE, 2015).
# In all, about 310,000 compounds went through this assay and about 2,200 (0.71%) showed an effect of 50% or more. Effects have a minus sign here. This is one part of the list.
# Biological target: human ether-à-go-go-related gene (hERG) potassium channel (human, UniProt Q12809)
# Test: primary screen, population patch clamp on CHO cells stably expressing hERG
# human ether-à-go-go-related gene (hERG) potassium channel, sequence (Q12809 whole entry, looked up): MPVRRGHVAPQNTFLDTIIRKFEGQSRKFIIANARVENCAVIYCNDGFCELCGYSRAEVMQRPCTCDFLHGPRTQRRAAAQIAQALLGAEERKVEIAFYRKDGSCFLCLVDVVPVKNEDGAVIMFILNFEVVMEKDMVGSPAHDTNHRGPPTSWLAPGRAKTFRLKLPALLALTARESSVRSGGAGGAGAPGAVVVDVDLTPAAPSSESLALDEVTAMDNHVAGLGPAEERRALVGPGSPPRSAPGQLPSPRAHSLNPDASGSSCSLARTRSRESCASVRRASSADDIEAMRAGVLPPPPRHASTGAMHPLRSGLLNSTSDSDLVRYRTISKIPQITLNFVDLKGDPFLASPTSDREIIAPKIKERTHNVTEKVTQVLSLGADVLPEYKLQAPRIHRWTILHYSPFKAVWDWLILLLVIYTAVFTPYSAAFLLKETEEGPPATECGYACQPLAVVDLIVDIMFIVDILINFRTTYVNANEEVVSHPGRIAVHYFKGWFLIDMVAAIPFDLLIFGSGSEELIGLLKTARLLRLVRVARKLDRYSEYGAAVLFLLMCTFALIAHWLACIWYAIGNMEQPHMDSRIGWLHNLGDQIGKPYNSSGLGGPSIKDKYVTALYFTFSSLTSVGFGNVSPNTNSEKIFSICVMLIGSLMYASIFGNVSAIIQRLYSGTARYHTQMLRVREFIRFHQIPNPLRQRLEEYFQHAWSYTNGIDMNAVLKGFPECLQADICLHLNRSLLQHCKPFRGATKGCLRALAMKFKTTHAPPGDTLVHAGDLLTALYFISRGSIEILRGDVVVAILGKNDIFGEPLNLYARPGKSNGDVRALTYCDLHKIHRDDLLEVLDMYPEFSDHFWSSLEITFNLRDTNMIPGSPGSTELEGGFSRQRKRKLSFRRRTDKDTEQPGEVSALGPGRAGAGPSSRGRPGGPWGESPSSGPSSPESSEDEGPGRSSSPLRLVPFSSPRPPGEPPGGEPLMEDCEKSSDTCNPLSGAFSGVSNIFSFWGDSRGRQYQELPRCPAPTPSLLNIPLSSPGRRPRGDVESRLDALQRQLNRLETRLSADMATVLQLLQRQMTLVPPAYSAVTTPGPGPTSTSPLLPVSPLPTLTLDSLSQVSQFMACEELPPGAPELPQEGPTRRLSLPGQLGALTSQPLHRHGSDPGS
row,SMILES,"hERG current change (%, negative = inhibition) at 1uM [%]"
1,CCOC(=O)C1=C(Cc2ccc(F)cc2)C(=O)c2ccccc2C1=O,6.27
2,COc1ccc(OC)c(N/C(C)=C/C(=O)c2ccc(Br)cc2)c1,3.82
3,COc1cccc(CNc2nnnn2C)c1,12
4,CC(=O)Nc1cccc(NC(=O)c2ccc(C(=O)Nc3cccc(NC(C)=O)c3)nc2)c1,17.5
5,CC(=O)c1ccc(C)cc1OC(=O)c1cccc(F)c1,16.4
6,Cc1cc(C)c(/C=C(\C#N)C(N)=S)c(C)c1,6.32
7,O=C(c1ccc(-n2cccn2)cc1)N1CCc2c([nH]c3ccccc23)C1c1ccccn1 (centres unmarked),5.13
8,Cc1ccc(C(=O)NNc2cc(=O)n(C)c(=O)n2C)cc1C,3
9,COc1cccc(NC(=O)c2sc3nc(N4CCOCC4)c4c(c3c2N)CCCC4)c1,13.7
10,CC1Cc2cc(S(=O)(=O)N3CCC(C(=O)N(C)Cc4ccco4)CC3)ccc2N1C(=O)C1CCC1 (centres unmarked),9.84
11,CC(=O)c1ccc(OCCCC(=O)NCCc2ccccc2)cc1,8.81
12,Cc1ccc(C(=O)N/N=C/c2ccc(-c3cccc(Cl)c3)o2)cn1,9.42
13,COc1ccc(-c2cc(C(=O)N3CCN(S(=O)(=O)c4ccccc4)CC3)[nH]n2)cc1,7.23
14,Cc1nc(=O)c(-c2ccccc2)c(C)n1CCCCCC(=O)O,13.7
15,Cc1ccc(CN2C(=O)c3ccccc3Sc3ccc(C(=O)NCCN4CCOCC4)cc32)cc1,18.8
16,CC(=O)c1cccc(NC(=O)c2ccc(Br)o2)c1,-5.03
17,Cc1ccc(C(=O)C2C(c3ccc(-c4ccccc4[N+](=O)[O-])o3)NC(=O)NC2(O)C(F)(F)F)cc1 (centres unmarked),4.51
18,O=C(N/C(=C\c1cccnc1)C(=O)N1CCCCC1)c1cccc(Br)c1,8.59
19,COc1cc2ccccc2cc1C(=O)NCC(c1cccs1)N(C)C (centres unmarked),-0.172
20,Cc1cnn(C(=S)NCc2ccco2)c1,6.08
21,COc1ccc(-c2noc(CNS(=O)(=O)c3ccccc3)n2)cc1,12.5
22,O=C(c1cc(-c2ccc(Cl)cc2)on1)N1CCCCCC1,7.56
23,Cc1ccc(C(=O)N/C(=C\c2sccc2C)C(=O)NCc2ccncc2)cc1,-1.07

row,SMILES,"hERG current change (%, negative = inhibition) at 1uM [%]"
1,O=C(NCCN1CCOCC1)c1cc(-c2ccc(Br)cc2)on1,-2.35
2,COc1ccc(C2SC[C@@H](C(=O)O)N2C(C)=O)cc1 (some centres unmarked),7.05
3,O=C(NCCN1CCOCC1)c1csc2c1CCCCC2,12.1
4,Cc1cc(-n2c(C)cc(C(=O)CN3C(=O)NC4(CCCC4)C3=O)c2C)no1,5.19
5,Cc1ccc(C)c(Cn2c(O)c(N=NC(=S)Nc3ccccc3F)c3ccccc32)c1,12.8
6,O=C(COc1ccccc1Cl)NCCCNC(=O)c1ccccn1,13.4
7,Cc1ccc(NC(=O)Cc2nc(CN(C)CC(=O)Nc3ccc(C)cc3)cs2)cc1,9.42
8,Cc1cccc(NC(=O)NC2CC3CCC(C2)N3Cc2ccco2)c1 (centres unmarked),-8.04
9,Cc1ccc(CNC(=O)C2CCC(=O)N(C3CCCC3)C2)c(F)c1F (centres unmarked),16
10,C1CCN=C(Nc2nc3c(s2)CCCC3)CC1,6.06
11,Cc1nn(C)cc1C(C(=O)NC1CCCCC1)N(C(=O)Cc1cccs1)c1ccc(C(C)C)cc1 (centres unmarked),-5.21
12,COc1ccc(C2CN=NC23CCCc2ccccc2C3=O)cc1 (centres unmarked),13.1
13,CN1C2Cc3c(n(C)c4ccccc34)C1CC=C2CO (centres unmarked),14.8
14,COc1cccc([C@H](O)Cn2cc(-c3ccc(CON=C(C)C)cc3)nn2)c1,16.1
15,Nc1c(C(=O)CSc2ncccn2)c(=O)[nH]c(=O)n1C1CC1,8.01
16,COc1cccc(/C=C/C(=O)N2CC(C)OC(C)C2)c1OC (centres unmarked),13.3
17,CCC(=O)Nc1sc2c(c1C(N)=O)CCN(C(C)=O)C2,15.2
18,Cc1cc2ncn(CC(O)COc3cccc(C(=O)O)c3)c2cc1C (centres unmarked),-12.6
19,O=C1/C(=C/c2ccc(F)cc2)SC(=S)N1CCCC(=O)N1CCCCC1CCO (centres unmarked),10.3
20,CCCNS(=O)(=O)c1cccc(C(=O)NC2CCCc3ccccc32)c1 (centres unmarked),-15.6
21,CCCc1nnc(NC(=O)CCC(=O)NCc2ccccc2OC)s1,23.2
22,Cc1ccc(SCc2[nH]nc3c2C2(C(=O)Nc4ccc(F)cc42)C(C#N)=C(N)O3)cc1 (centres unmarked),6.88
23,Cc1ccc(NC(=O)CSCC(=O)N2CCCc3ccccc32)cc1,5.83

row,SMILES,"hERG current change (%, negative = inhibition) at 1uM [%]"
1,COc1ccc(S(=O)(=O)N/N=C\c2ccc3c(c2)OCO3)cc1,-4.43
2,CCS(=O)(=O)Nc1ccc(C2=NN(C(=O)c3ccco3)C(c3cccc(F)c3)C2)cc1 (centres unmarked),0.693
3,O=C(CC(C(=O)N1CCc2ccccc21)n1ccnc1)NCC1CCCO1 (centres unmarked),9.19
4,C1CCNCC1.N#CC1=C(N)Oc2cc(O)ccc2C1c1ccc2c(c1)OCO2 (centres unmarked),10.2
5,Cl.O=[N+]([O-])c1ccc(CN2CCN(c3ccc4ccccc4n3)CC2)cc1,-1.76
6,O=C(C[n+]1ccc(C(=O)NCc2ccccc2)cc1)c1ccc2c(c1)OCCO2.[Br-],12.6
7,O=C(C1CC1)N1CCc2cc(Br)cc(S(=O)(=O)NCc3ccc4c(c3)OCO4)c21,-16.7
8,O=C1OC(C(=O)O)Cc2ccccc21 (centres unmarked),4.48
9,O=C(NCc1ccccc1)c1cc2ccc(O)cc2oc1=O,28.9
10,CCS(=O)(=O)C1=NSC2=NC(=O)/C(=C\c3ccc(OC(=O)c4ccco4)c(OC)c3)C(=N)N21,9.83
11,O=C(CSc1ccc([N+](=O)[O-])cc1)NCC1CCCCC1,-3.33
12,O=C(NCCN1CCN(c2ccccc2Cl)CC1)Nc1ccccc1,10.1
13,COC(=O)c1ccc(N)c(CS(=O)(=O)c2ccc(Cl)cc2)c1,10.4
14,O=C(Nc1cccc(C(F)(F)F)c1)c1cc2c(s1)-c1ccccc1OC2,-0.0218
15,CCOC(=O)CN1C(=O)CCSc2ccc(Cl)cc21,16.9
16,CCCC(C)NC(=O)c1cc(Cl)ccc1OC (centres unmarked),-3.7
17,Cc1ccc([N+](=O)[O-])cc1S(=O)(=O)Nc1ccc(C(=O)NCC2CCCO2)cc1 (centres unmarked),7.74
18,O=C(NCC1OCCc2ccccc21)c1ccc(NC(=O)c2cccc(Br)c2)cc1 (centres unmarked),7.53
19,Cc1[nH]c2ccc(C(=O)Nc3ccncc3)cc2c1C,6.29
20,O=C(O)/C=C/C(=O)NCCc1ccccc1,30
21,O=C(COC(=O)CNS(=O)(=O)c1ccc(F)c(F)c1F)NC1CC1,5
22,Cc1ccc(C)c(OCCC(=O)OCC(=O)NCc2ccc(F)cc2)c1,-1.67
23,O=C(CN1CCC(Cc2ccccc2)CC1)NC(=O)NCc1ccco1,-1.19

row,SMILES,"hERG current change (%, negative = inhibition) at 1uM [%]"
1,Nc1ccn(Cc2ccc(F)cc2)n1,5.46
2,O=C(NCCc1cccs1)C1CC1,11.9
3,Cc1c(-c2cccc(Cl)c2)nc2ccccc2c1C(=O)NC1CC1,-3
4,CS(=O)(=O)NCCCc1ccccc1,15.6
5,Cc1cc(C)n2nc(C(=O)Nc3cccc(S(=O)(=O)N(C)c4ccccc4)c3)nc2n1,-18.7
6,CCOC(=O)c1ccc(NC(=O)c2nc[nH]c2C(=O)NCCCCNC(=O)c2[nH]cnc2C(=O)Nc2ccc(C(=O)OCC)cc2)cc1,16.5
7,CC(C)CCNC(=O)c1cc2c(=O)[nH]c3ccccc3c2s1,12.8
8,CNc1ccc(/C=C(\C#N)C(=O)Nc2ccccn2)cc1[N+](=O)[O-],16.3
9,CCC1CN(C(=O)NCc2ccc(C)cc2)c2cc(C)ccc2O1 (centres unmarked),9.84
10,CC(C)OC(=O)c1cc(NC(=O)c2nn(C)cc2Br)cc(C(=O)OC(C)C)c1,10.9
11,Cc1cc(S(=O)(=O)N2CCN(c3c(C)cccc3C)CC2)ccc1F,-0.574
12,COc1cccc(OC)c1C(=O)NC(=S)Nc1ccc(N2CCOCC2)c(Cl)c1,11.8
13,Cc1c(C(=O)NC(C)c2ccccc2)c(-c2ccccc2)nn1-c1ccccc1 (centres unmarked),13
14,Cc1nc(-c2cccs2)sc1C(=O)NN,12.1
15,Cc1cc(=O)oc2cc(NC(=O)c3ccccc3OC(F)F)ccc12,14.6
16,CN(C)CCNC(=O)Cn1nc(C(F)F)cc1C1CC1,2.48
17,CN1CCC(OC(=O)c2cc3cc(Cl)cc(Cl)c3oc2=O)CC1,7.84
18,CC[N+](CC)(CC)CC(=O)Nc1c(C)cccc1C.[Br-],20.3
19,COCCSc1ccccc1C(=O)Nc1ccc(Cl)cc1,7.92
20,[O-]/C(=C(\C(=S)Nc1ccc(SC(F)F)cc1)[n+]1ccccc1)c1cc(Cl)ccc1Cl,-5.78
